Measured values: PubChem BioAssay AID1745853 (National Center for Advancing Translational Sciences (NCATS), 2022)
Several values for one entry are separate records, joined by “and”; a condition that tells them apart may be missing. Equal entries are not always repeated. The list shows a part of the results. Further columns of the screen follow, without active or inactive calls.

Experiments:
Experiment in all cases: Primary Screen for Target Class Profiling of Small Molecule Inhibitors of Methyltransferases
[1] = molecular target: Glycine N-methyltransferase (Homo sapiens) (UniProt Q14749); conditions: purified enzyme, MTase-Glo SAH luminescence; measured here: GNMT inhibition; at 40 µM; stronger effect = lower value
Outline: (§1)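 Each enzyme was assayed with SAM and its substrate. SAH formation detected by MTase-Glo luminescence; single-point 40 uM screen[…].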

[2] = molecular target: Guanidinoacetate N-methyltransferase (Homo sapiens) (UniProt Q14353); conditions: purified enzyme, MTase-Glo SAH luminescence; measured here: GAMT inhibition; at 40 µM; stronger effect = lower value
Outline: as §1

[3] = molecular target: Histamine N-methyltransferase (Homo sapiens) (UniProt P50135); conditions: purified enzyme, MTase-Glo SAH luminescence; measured here: HNMT inhibition; at 40 µM; stronger effect = lower value
Outline: as §1

[4] = molecular target: Nicotinamide N-methyltransferase (Homo sapiens) (UniProt P40261); conditions: purified enzyme, MTase-Glo SAH luminescence; measured here: NNMT inhibition; at 40 µM; stronger effect = lower value
Outline: as §1

[5] = molecular target: Phenylethanolamine N-methyltransferase (Homo sapiens) (UniProt P11086); conditions: purified enzyme, MTase-Glo SAH luminescence; measured here: PNMT inhibition; at 40 µM; stronger effect = lower value
Outline: as §1
% is scaled to controls: 0 for no effect and ±100 for the full control effect.

Molecule O=C(Cn1nc2n(Cc3ccccc3)c(=O)c3ccccc3n2c1=O)NCc1ccc(Cl)cc1 has an activity change, negative = inhibition [1] of 3.73%, an activity change, negative = inhibition [2] of 0% and an activity change, negative = inhibition [3] of 4.79%. The activity change, negative = inhibition [4] was 5.33% and the activity change, negative = inhibition [5] was 2.1%.
In the case of N[C@H](C(=O)O)c1cc(O)cc(O)c1, the activity change, negative = inhibition [1] is reported as 4.8%, the activity change, negative = inhibition [2] is reported as 5.55% and the activity change, negative = inhibition [3] is reported as 10.6%. For the same molecule, the activity change, negative = inhibition [4] was -4.67% and the activity change, negative = inhibition [5] was 2.94%.
Work on O=C(Nc1ccc(Cl)nc1)c1ccc2ccnn2c1 yielded an activity change, negative = inhibition [1] of -25.1%, an activity change, negative = inhibition [2] of 0.147% and an activity change, negative = inhibition [3] of 0.743%. For the same molecule, the activity change, negative = inhibition [4] was -7.76% and the activity change, negative = inhibition [5] was -3.21%.
Work on CN1C[C@H](O)C[C@H]1c1nnc2n1CCN(S(=O)(=O)c1ccccc1)CC2 yielded an activity change, negative = inhibition [1] of 0.608%, an activity change, negative = inhibition [2] of 3.61% and an activity change, negative = inhibition [3] of 1.45%. For the same molecule, the activity change, negative = inhibition [4] was 0.484% and the activity change, negative = inhibition [5] was 12.3%.
For c1ccc(C(NCc2cccnc2)(c2ccccc2)c2ccccc2)cc1, the activity change, negative = inhibition [1] was 8.93%, the activity change, negative = inhibition [2] was 14.3% and the activity change, negative = inhibition [3] was 11.5%. For the same molecule, the activity change, negative = inhibition [4] was -8.62% and the activity change, negative = inhibition [5] was 0.292%.
Cc1nc2c3ccccc3n3c(CCCC(=O)N4CCN(c5ccc(F)cc5)CC4)nnc3n2n1 gave an activity change, negative = inhibition [1] of -20.3%, an activity change, negative = inhibition [2] of 0.865% and an activity change, negative = inhibition [3] of 5.07%. The activity change, negative = inhibition [4] was 9.43% and the activity change, negative = inhibition [5] was 2.5%.
Work on CC(C)n1c(=O)c2ccc(C(=O)NC3CCCC3)cc2n2c(=O)n(Cc3c(F)cccc3Cl)nc12 yielded an activity change, negative = inhibition [1] of 6.19%, an activity change, negative = inhibition [2] of 4.03% and an activity change, negative = inhibition [3] of 4.24%. For the same molecule, the activity change, negative = inhibition [4] was 2.82% and the activity change, negative = inhibition [5] was 7.52%.
For Cc1cccc(C#Cc2ccccc2)n1, the activity change, negative = inhibition [1] was -25.4%, the activity change, negative = inhibition [2] was -13.6% and the activity change, negative = inhibition [3] was -14.5%. The activity change, negative = inhibition [4] was -19% and the activity change, negative = inhibition [5] was -17.7%.
In the case of CN(C1CCc2c(c3ccccc3n2CC(=O)O)C1)S(=O)(=O)c1ccc(F)cc1 (stereo not given), the activity change, negative = inhibition [1] is reported as -2.75% and -1.75%, the activity change, negative = inhibition [2] is reported as -2.72% and 3.52% and the activity change, negative = inhibition [3] is reported as 10.7% and 9.99%. For the same molecule, the activity change, negative = inhibition [4] was -18.6% and -13.4% and the activity change, negative = inhibition [5] was 1.57% and 3.66%.
CC1CCCC(NC(=O)C2(C)Cn3c(cc4sccc43)C(=O)N2CCCc2ccccc2)C1C (stereo not given) showed an activity change, negative = inhibition [1] of -9.99%, an activity change, negative = inhibition [2] of -1.15% and an activity change, negative = inhibition [3] of -3.55%. For the same molecule, the activity change, negative = inhibition [4] was -10% and the activity change, negative = inhibition [5] was -3.62%.
CC1=C(CO)C(=O)O[C@@H]([C@@H](C)[C@H]2CC[C@H]3[C@@H]4C[C@H]5O[C@]56[C@@H](O)C=CC(=O)[C@]6(C)[C@H]4CC[C@]23C)C1 gave an activity change, negative = inhibition [1] of -11.3%, an activity change, negative = inhibition [2] of -6.09% and an activity change, negative = inhibition [3] of 5.87%. The activity change, negative = inhibition [4] was -17.5% and the activity change, negative = inhibition [5] was -8.14%.
With CO[C@@]12CC3[C@@H]([C@@H](O)[C@@H](OC(C)=O)C4[C@](C)(COC(C)=O)CCC[C@]34C)[C@@H](C)C1=CC(=O)O2 (stereo not given in full) the activity change, negative = inhibition [1] was 0%, the activity change, negative = inhibition [2] was 3.14% and the activity change, negative = inhibition [3] was 4.15%. The activity change, negative = inhibition [4] was -10.7% and the activity change, negative = inhibition [5] was 5.16%.
For CSc1ccc(CNC(=O)CCn2ccc3cc(S(=O)(=O)N4CCCCC4)ccc32)cc1, the activity change, negative = inhibition [1] was -0.496%, the activity change, negative = inhibition [2] was 1.92% and the activity change, negative = inhibition [3] was -4.28%. The activity change, negative = inhibition [4] was -6.38% and the activity change, negative = inhibition [5] was -3.95%.
For O=C(c1ccc(F)cc1)N1CCC(C(=O)N2CCCC(c3nc4ccncc4[nH]3)C2)CC1 (stereo not given), the activity change, negative = inhibition [1] was -7.21%, the activity change, negative = inhibition [2] was -7.8% and the activity change, negative = inhibition [3] was -13.8%. It also gave an activity change, negative = inhibition [4] of -23.6% and an activity change, negative = inhibition [5] of -11.6%.
CC(CNC(=O)CCc1nnc2n(CCc3ccccc3)c(=O)c3ccccc3n12)c1ccccc1 (stereo not given) was tested, and the activity change, negative = inhibition [1] was -17.4%, the activity change, negative = inhibition [2] was 0% and the activity change, negative = inhibition [3] was 3.24%. It also gave an activity change, negative = inhibition [4] of 3.47% and an activity change, negative = inhibition [5] of 0.71%.
With O=C(NCc1ccc(F)cc1)c1ccc2c(=O)nc3c(-c4ccc(Cl)cc4)n[nH]n3c2c1 the activity change, negative = inhibition [1] was -0.685%, the activity change, negative = inhibition [2] was 2.73% and the activity change, negative = inhibition [3] was 1.75%. The activity change, negative = inhibition [4] was 5.49% and the activity change, negative = inhibition [5] was 1.25%.
Molecule NS(=O)(=O)c1ccc(CCNc2nc3c(-c4ccc(Cl)cc4)nnn3c3ccccc23)cc1 has an activity change, negative = inhibition [1] of -3.46%, an activity change, negative = inhibition [2] of 6.74% and an activity change, negative = inhibition [3] of 6.54%. The activity change, negative = inhibition [4] was 2.67% and the activity change, negative = inhibition [5] was 1.71%.
FC(F)(F)c1ccc(CN2CCC3(CC(c4cccc(C(F)(F)F)c4)=NO3)C2)cc1 (stereo not given) showed an activity change, negative = inhibition [1] of -5.03%, an activity change, negative = inhibition [2] of -0.695% and an activity change, negative = inhibition [3] of -0.923%. The activity change, negative = inhibition [4] was -4.08% and the activity change, negative = inhibition [5] was -10%.
In the case of Cn1cc(CN[C@H]2C[C@H]3C(=O)NC[C@@H](CCC(=O)NCc4ccccc4)N3C2)c2ccccc21, the activity change, negative = inhibition [1] is reported as -5.4%, the activity change, negative = inhibition [2] is reported as -3.58% and the activity change, negative = inhibition [3] is reported as -4.7%. For the same molecule, the activity change, negative = inhibition [4] was -14% and the activity change, negative = inhibition [5] was -4.88%.
